Substitutions are numbered along the chain they refer to. In names and notes the source's numbering stands. Results are given in words; binding and its absence hold for the method and conditions named. Some binding calls cover weakened binding; strength is not graded here.

Sequences of proteins named here, by UniProt entry; tags and fusion partners are left off.
UniProt P13445: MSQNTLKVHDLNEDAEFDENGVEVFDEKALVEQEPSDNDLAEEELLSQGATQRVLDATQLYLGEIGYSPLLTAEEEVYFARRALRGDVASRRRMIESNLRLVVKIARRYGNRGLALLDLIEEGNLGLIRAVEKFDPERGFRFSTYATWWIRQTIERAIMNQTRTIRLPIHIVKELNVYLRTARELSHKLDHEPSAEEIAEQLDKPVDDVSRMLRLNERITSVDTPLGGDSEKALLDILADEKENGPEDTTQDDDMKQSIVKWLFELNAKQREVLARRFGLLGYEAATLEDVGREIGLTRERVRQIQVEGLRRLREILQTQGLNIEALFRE

Drawing on publication PMC7226468, “Insight into the RssB-Mediated Recognition and Delivery of σ^s to the AAA+ Protease, ClpXP” (Biomolecules, 2020), this text covers binding for two molecules.

Assay [1] concerns the target T1, Trx-RssB_(R117A) (E. coli) (UniProt P0AEV1).
T1 sequence: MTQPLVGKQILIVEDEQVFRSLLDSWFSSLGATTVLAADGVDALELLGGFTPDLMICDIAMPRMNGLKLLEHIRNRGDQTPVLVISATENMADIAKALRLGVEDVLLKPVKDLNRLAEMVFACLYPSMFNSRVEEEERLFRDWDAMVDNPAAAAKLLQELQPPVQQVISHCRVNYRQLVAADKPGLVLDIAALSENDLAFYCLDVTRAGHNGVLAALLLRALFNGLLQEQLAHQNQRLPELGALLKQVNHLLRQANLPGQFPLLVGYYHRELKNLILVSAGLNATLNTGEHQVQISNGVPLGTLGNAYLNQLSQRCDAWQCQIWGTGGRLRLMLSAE
Kind of assay: pull-down; Trx-RssB (wild type or mutant) immobilised on Ni-NTA agarose, untagged σS added, in the absence of AcP (Figure 6a,b); both purified.

Assay [2] addresses T2, Trx-RssB_(RE/AA) (E. coli) (UniProt P0AEV1).
T2 sequence: T1 sequence with E118A
Described as above.

In assay [3] the target is T3, Trx-H6-RssB, wild type (E. coli) (UniProt P0AEV1).
T3 sequence: T1 sequence with A117R
Kind of assay: pull-down; Trx-H6-RssB (wild type, RssBN or RssBC) immobilised on Ni-NTA agarose, untagged σS added; 25 μg proteins, Hepes-KOH pH 7.5, 100 mM KOAc; AcP not stated (Figure 5c); both purified.

A further assay has as its target T4, Trx-H6-RssBC (E. coli) (UniProt P0AEV1).
T4 sequence: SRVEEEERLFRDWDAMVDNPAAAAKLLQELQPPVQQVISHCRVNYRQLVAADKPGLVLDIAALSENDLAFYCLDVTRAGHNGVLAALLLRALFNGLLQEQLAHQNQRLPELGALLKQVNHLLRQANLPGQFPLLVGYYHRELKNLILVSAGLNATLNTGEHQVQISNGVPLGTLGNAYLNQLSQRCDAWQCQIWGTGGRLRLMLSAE
The description is as above.

The target of another assay is T5, Trx-H6-RssBN (E. coli) (UniProt P0AEV1).
T5 sequence: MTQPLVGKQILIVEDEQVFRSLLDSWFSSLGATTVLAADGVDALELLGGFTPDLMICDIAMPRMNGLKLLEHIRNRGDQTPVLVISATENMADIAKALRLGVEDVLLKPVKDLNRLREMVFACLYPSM
The description is as above.

The target in assay [4] is T1, Trx-RssB_(R117A) (E. coli). The assay is described as follows: SEC; SEC (Superdex 200 16/600) in line with synchrotron SAXS; Trx-RssB R117A (20 nmol), σS (35 nmol) and the complex at 1:1 molar ratio (12.5–15 nmol), 10 mM AcP, 20 mM Tris-HCl pH 7.5, 140 mM NaCl; both purified. On the technique in general: SEC sorts molecules by how far they enter the pores of the column.

On to “σ^S (SigmaS), untagged, wild type (from UniProt P13445 1-330)”, for which the binding result is “no binding (condition: in the absence of AcP)” in assay [1]; “no binding (condition: in the absence of AcP)” in assay [2]; “binds” in assay [3]; “binds” with Trx-H6-RssBC (E. coli); “binds weakly” with Trx-H6-RssBN (E. coli).

B1: Trx-RssB_(R117A) (protein, UniProt P0AEV1 1-337)
chain: T1 sequence
Regarding B1, the binding result in assay [4] was “no binding”.
